Measured values taken from PMC6310259.
Results are given in words; binding and its absence hold for the method and conditions named. For some of these results: Binding seen in cells or lysates may run through a third protein. Some entries that bind do so weakly or less than the wild type. Sequences can lack the tags named with a protein. Blank lines part the entries; values can stand above or below the binder they belong to.

Assays:
[1] = target: T1, NPR2, BiFC fusion (Arabidopsis thaliana) (UniProt Q9SZI3); test: split reporter; BiFC in N. benthamiana leaves, agroinfiltrated; 1 mM SA one day before visualization; first protein fused with the N-terminal part of GFP, second with the C-terminal; confocal microscopy
T1 sequence: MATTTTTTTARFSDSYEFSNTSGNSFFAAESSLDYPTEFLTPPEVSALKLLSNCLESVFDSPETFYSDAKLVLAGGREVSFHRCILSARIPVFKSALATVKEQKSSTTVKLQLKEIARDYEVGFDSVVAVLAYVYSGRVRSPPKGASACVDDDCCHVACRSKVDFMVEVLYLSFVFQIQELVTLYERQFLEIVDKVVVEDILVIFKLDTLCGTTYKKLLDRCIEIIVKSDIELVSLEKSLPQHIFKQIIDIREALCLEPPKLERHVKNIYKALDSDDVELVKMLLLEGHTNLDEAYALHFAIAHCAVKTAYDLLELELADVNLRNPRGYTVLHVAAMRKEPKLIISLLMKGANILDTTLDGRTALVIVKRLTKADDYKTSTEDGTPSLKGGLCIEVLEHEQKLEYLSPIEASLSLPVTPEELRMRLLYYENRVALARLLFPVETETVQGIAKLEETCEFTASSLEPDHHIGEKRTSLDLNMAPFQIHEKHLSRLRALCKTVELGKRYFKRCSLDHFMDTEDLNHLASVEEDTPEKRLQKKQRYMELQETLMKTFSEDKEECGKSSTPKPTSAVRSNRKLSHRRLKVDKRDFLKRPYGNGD

[2] = target: NPR1, BiFC fusion (Arabidopsis thaliana) (UniProt P93002); test: as above
[3] = target: T2, BOP2, BiFC fusion (Arabidopsis thaliana) (UniProt Q9ZVC2); test: as above
T2 sequence: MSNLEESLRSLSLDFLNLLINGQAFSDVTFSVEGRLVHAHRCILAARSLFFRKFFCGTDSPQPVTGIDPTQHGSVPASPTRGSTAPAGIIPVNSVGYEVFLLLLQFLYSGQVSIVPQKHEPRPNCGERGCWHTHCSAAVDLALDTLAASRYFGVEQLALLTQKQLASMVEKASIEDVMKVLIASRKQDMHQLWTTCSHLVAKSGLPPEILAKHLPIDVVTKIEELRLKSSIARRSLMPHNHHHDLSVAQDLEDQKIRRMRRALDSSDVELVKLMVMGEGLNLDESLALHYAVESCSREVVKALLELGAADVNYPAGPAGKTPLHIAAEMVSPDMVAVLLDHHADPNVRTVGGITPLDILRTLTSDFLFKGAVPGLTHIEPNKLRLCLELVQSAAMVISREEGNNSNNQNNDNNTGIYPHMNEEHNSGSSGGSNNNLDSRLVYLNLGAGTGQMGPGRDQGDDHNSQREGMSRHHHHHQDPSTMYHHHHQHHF

[4] = target: T3, BOP1, BiFC fusion (Arabidopsis thaliana) (UniProt Q9M1I7); test: as above
T3 sequence: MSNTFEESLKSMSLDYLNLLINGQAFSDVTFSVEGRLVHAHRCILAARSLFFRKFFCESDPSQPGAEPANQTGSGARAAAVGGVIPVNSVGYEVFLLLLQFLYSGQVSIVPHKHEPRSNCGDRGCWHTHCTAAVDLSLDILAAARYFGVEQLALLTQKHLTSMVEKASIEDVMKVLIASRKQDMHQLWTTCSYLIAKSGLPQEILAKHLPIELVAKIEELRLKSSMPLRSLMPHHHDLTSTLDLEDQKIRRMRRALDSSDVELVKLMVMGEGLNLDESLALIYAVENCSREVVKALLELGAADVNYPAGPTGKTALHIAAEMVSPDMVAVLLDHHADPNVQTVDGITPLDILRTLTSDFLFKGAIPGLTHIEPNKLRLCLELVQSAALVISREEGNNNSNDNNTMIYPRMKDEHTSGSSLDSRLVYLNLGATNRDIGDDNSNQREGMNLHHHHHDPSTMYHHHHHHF

[5] = substrate: NON EXPRESSER OF PATHOGENESIS RELATED 1 (NPR1), yeast two-hybrid fusion (Arabidopsis thaliana) (UniProt P93002); test: two-hybrid; NPR1 paralogs against each other (Fig 5); growth on -His, 5 mM or less 3AT when indicated; result told for plates with and without SA alike, or without naming the plate
[6] = target: MBP-NPR1 (Arabidopsis thaliana) (UniProt P93002); test: pull-down; GFP-NPR2 and MBP-fused paralogs transiently expressed in N. benthamiana; extracts pulled down with amylose resin; GFP-NPR2 detected in the eluted fraction by immunoblot (the paper's 'co-sedimentation')
[7] = target: GFP-NPR2 (Arabidopsis thaliana) (UniProt Q9SZI3); test: as above
[8] = target: T4, NPR1, BiFC fusion (Arabidopsis thaliana), P93002; test: split reporter; BiFC in N. benthamiana leaves, agroinfiltrated; 1 mM SA one day before visualization; first protein fused with the N-terminal part of GFP, second with the C-terminal; confocal microscopy; conditions: remark: other sources report otherwise
T4 chain: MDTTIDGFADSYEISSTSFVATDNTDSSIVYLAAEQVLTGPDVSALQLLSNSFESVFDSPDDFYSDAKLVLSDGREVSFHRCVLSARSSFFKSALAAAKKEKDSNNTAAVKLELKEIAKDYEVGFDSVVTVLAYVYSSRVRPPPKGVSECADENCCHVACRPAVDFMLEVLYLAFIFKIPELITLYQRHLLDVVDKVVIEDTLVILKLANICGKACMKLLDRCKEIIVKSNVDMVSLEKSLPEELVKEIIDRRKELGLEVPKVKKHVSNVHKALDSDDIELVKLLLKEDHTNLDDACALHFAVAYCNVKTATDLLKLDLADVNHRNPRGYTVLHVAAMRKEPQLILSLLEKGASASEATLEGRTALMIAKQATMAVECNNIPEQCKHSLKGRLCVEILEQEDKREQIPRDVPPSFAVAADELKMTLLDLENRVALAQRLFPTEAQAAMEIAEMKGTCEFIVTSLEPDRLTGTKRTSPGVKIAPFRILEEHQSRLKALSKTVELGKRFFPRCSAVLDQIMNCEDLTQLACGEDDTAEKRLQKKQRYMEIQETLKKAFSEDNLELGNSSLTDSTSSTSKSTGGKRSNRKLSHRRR

[9] = target: T5, NPR2, yeast two-hybrid fusion (Arabidopsis thaliana) (UniProt Q9SZI3); test: two-hybrid; yeast with one cDNA in pDEST22 and one in pDEST32; growth on -His with 100 μM SA or 100 μM HBA, without 3AT (Fig 4b)
T5 sequence: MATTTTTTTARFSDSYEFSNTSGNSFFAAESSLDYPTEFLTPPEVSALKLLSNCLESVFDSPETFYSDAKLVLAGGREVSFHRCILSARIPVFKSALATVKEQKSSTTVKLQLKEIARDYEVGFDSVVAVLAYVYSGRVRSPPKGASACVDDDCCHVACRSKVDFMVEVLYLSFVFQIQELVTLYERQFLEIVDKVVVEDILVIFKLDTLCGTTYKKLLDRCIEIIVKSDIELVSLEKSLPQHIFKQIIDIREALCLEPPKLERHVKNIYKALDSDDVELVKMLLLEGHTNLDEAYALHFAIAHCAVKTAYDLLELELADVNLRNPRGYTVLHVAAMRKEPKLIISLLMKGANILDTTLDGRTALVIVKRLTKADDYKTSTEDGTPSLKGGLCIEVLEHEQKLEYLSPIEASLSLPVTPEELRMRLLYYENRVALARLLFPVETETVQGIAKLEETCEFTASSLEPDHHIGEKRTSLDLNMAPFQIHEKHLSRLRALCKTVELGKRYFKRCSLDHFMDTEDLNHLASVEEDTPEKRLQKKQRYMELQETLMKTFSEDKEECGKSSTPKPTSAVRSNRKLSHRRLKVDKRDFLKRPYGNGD

[10] = target: T5, NPR2, yeast two-hybrid fusion (Arabidopsis thaliana); test: two-hybrid; yeast with one cDNA in pDEST22 and one in pDEST32; growth on minimal media -His with 5 mM 3AT and 100 μM SA or 100 μM HBA (Fig 4a)

binding [1]: binds
binding [2]: binds
binding [3]: binds
binding [4]: binds
B1: NPR2, BiFC fusion (protein, UniProt Q9SZI3 1-600)
chain: MATTTTTTTARFSDSYEFSNTSGNSFFAAESSLDYPTEFLTPPEVSALKLLSNCLESVFDSPETFYSDAKLVLAGGREVSFHRCILSARIPVFKSALATVKEQKSSTTVKLQLKEIARDYEVGFDSVVAVLAYVYSGRVRSPPKGASACVDDDCCHVACRSKVDFMVEVLYLSFVFQIQELVTLYERQFLEIVDKVVVEDILVIFKLDTLCGTTYKKLLDRCIEIIVKSDIELVSLEKSLPQHIFKQIIDIREALCLEPPKLERHVKNIYKALDSDDVELVKMLLLEGHTNLDEAYALHFAIAHCAVKTAYDLLELELADVNLRNPRGYTVLHVAAMRKEPKLIISLLMKGANILDTTLDGRTALVIVKRLTKADDYKTSTEDGTPSLKGGLCIEVLEHEQKLEYLSPIEASLSLPVTPEELRMRLLYYENRVALARLLFPVETETVQGIAKLEETCEFTASSLEPDHHIGEKRTSLDLNMAPFQIHEKHLSRLRALCKTVELGKRYFKRCSLDHFMDTEDLNHLASVEEDTPEKRLQKKQRYMELQETLMKTFSEDKEECGKSSTPKPTSAVRSNRKLSHRRLKVDKRDFLKRPYGNGD

binding [5]: binds
B2: NPR2, yeast two-hybrid fusion (protein, UniProt Q9SZI3 1-600)
chain: MATTTTTTTARFSDSYEFSNTSGNSFFAAESSLDYPTEFLTPPEVSALKLLSNCLESVFDSPETFYSDAKLVLAGGREVSFHRCILSARIPVFKSALATVKEQKSSTTVKLQLKEIARDYEVGFDSVVAVLAYVYSGRVRSPPKGASACVDDDCCHVACRSKVDFMVEVLYLSFVFQIQELVTLYERQFLEIVDKVVVEDILVIFKLDTLCGTTYKKLLDRCIEIIVKSDIELVSLEKSLPQHIFKQIIDIREALCLEPPKLERHVKNIYKALDSDDVELVKMLLLEGHTNLDEAYALHFAIAHCAVKTAYDLLELELADVNLRNPRGYTVLHVAAMRKEPKLIISLLMKGANILDTTLDGRTALVIVKRLTKADDYKTSTEDGTPSLKGGLCIEVLEHEQKLEYLSPIEASLSLPVTPEELRMRLLYYENRVALARLLFPVETETVQGIAKLEETCEFTASSLEPDHHIGEKRTSLDLNMAPFQIHEKHLSRLRALCKTVELGKRYFKRCSLDHFMDTEDLNHLASVEEDTPEKRLQKKQRYMELQETLMKTFSEDKEECGKSSTPKPTSAVRSNRKLSHRRLKVDKRDFLKRPYGNGD

binding [6]: binds
binding [7]: binds
B3: GFP-NPR2 (protein, UniProt Q9SZI3 1-600)
chain: MATTTTTTTARFSDSYEFSNTSGNSFFAAESSLDYPTEFLTPPEVSALKLLSNCLESVFDSPETFYSDAKLVLAGGREVSFHRCILSARIPVFKSALATVKEQKSSTTVKLQLKEIARDYEVGFDSVVAVLAYVYSGRVRSPPKGASACVDDDCCHVACRSKVDFMVEVLYLSFVFQIQELVTLYERQFLEIVDKVVVEDILVIFKLDTLCGTTYKKLLDRCIEIIVKSDIELVSLEKSLPQHIFKQIIDIREALCLEPPKLERHVKNIYKALDSDDVELVKMLLLEGHTNLDEAYALHFAIAHCAVKTAYDLLELELADVNLRNPRGYTVLHVAAMRKEPKLIISLLMKGANILDTTLDGRTALVIVKRLTKADDYKTSTEDGTPSLKGGLCIEVLEHEQKLEYLSPIEASLSLPVTPEELRMRLLYYENRVALARLLFPVETETVQGIAKLEETCEFTASSLEPDHHIGEKRTSLDLNMAPFQIHEKHLSRLRALCKTVELGKRYFKRCSLDHFMDTEDLNHLASVEEDTPEKRLQKKQRYMELQETLMKTFSEDKEECGKSSTPKPTSAVRSNRKLSHRRLKVDKRDFLKRPYGNGD

binding [8]: binds
B4: NPR1, BiFC fusion, P93002 1-593 (protein)
chain: MDTTIDGFADSYEISSTSFVATDNTDSSIVYLAAEQVLTGPDVSALQLLSNSFESVFDSPDDFYSDAKLVLSDGREVSFHRCVLSARSSFFKSALAAAKKEKDSNNTAAVKLELKEIAKDYEVGFDSVVTVLAYVYSSRVRPPPKGVSECADENCCHVACRPAVDFMLEVLYLAFIFKIPELITLYQRHLLDVVDKVVIEDTLVILKLANICGKACMKLLDRCKEIIVKSNVDMVSLEKSLPEELVKEIIDRRKELGLEVPKVKKHVSNVHKALDSDDIELVKLLLKEDHTNLDDACALHFAVAYCNVKTATDLLKLDLADVNHRNPRGYTVLHVAAMRKEPQLILSLLEKGASASEATLEGRTALMIAKQATMAVECNNIPEQCKHSLKGRLCVEILEQEDKREQIPRDVPPSFAVAADELKMTLLDLENRVALAQRLFPTEAQAAMEIAEMKGTCEFIVTSLEPDRLTGTKRTSPGVKIAPFRILEEHQSRLKALSKTVELGKRFFPRCSAVLDQIMNCEDLTQLACGEDDTAEKRLQKKQRYMEIQETLKKAFSEDNLELGNSSLTDSTSSTSKSTGGKRSNRKLSHRRR

binding [9]: no binding
B5: β carbonic anhydrase 2 (CA2), yeast two-hybrid fusion (protein, UniProt P42737 1-331)
chain: MVPFWTTVSRNGSSDSETTLQSASKATKQYKYPSLRPSHRLSLLFLFPFHLSANGACFRCTCFSHFKLELRRMGNESYEDAIEALKKLLIEKDDLKDVAAAKVKKITAELQAASSSDSKSFDPVERIKEGFVTFKKEKYETNPALYGELAKGQSPKYMVFACSDSRVCPSHVLDFHPGDAFVVRNIANMVPPFDKVKYAGVGAAIEYAVLHLKVENIVVIGHSACGGIKGLMSFPLDGNNSTDFIEDWVKICLPAKSKVLAESESSAFEDQCGRCEREAVNVSLANLLTYPFVREGVVKGTLALKGGYYDFVNGSFELWELQFGISPVHSI

binding [10]: no binding
B6: NIMIN1 (NIM1-… 1), yeast two-hybrid fusion (protein, UniProt Q9FNZ5 1-142)
chain: MYPKQFSLYNYSLETMSKDENVESKETIRVDKRVREDEEEEEEKKIDTFFKLIKHYQEARKRRREELAENSGVVRRKSNGGERSGIVVPAFQPEDFSQCRTGLKPPLMFVSDHKEENTKVEQEEDQTEERNEDKALDLNLAL
